Laboratory results reported in PubChem BioAssay AID624173 (National Center for Advancing Translational Sciences (NCATS), 2012).
In all, about 410,000 compounds went through this assay and about 490 (0.12%) were called active. Inconclusive results, whose numbers are uncertain, are shown with a selection of clear calls. Calls follow the shape of the dose curve; as a rule, active = well fitted inhibition curve with a large enough effect; inconclusive = small, poorly fitted or top-dose-only effect; inactive = flat fitted curve, though single readings scatter. Where the call is inconclusive, the potency comes from a doubtful curve fit.

Biological target: pyruvate kinase (Trypanosoma brucei) (UniProt Q57TT1)
Experiment: qHTS of Trypanosoma Brucei Inhibitors; also: nearly all actives have a fitted effect of over 50% in size
Details: TbPYK enzyme, Kinase-Glo Plus ATP luminescence, 45 min; series mostly up to 76.8 µM
Method in brief: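 Luminescent Kinase-Glo Plus end-point after 45 min room-temperature reaction of T. brucei pyruvate kinase started with 130 uM ADP (final). Buffer TEA 50 mM pH 7.2 with KCl, MgCl2, BSA, Tween-20; titration-based qHTS with fitted concentration-effect curves.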
Potency is read from the fitted curve at half-maximal effect; tags tell the direction and shape of the fitted curve.

Compound | Potency
CN(Cc1cccc2cnccc12)C(=O)c1cc(COc2ccc(F)cc2F)on1 | inactive
O=C(/C=C/c1cccs1)NC(=S)Nc1ccccc1 | inactive
C[C@H](NC(N)=O)C(=O)Nc1ccc(N2CCOCC2)c(S(=O)(=O)Nc2ccc(Cl)cc2)c1 | inconclusive: 28.2 µM [inhibitor, partial curve, poor fit]
CCCSC1=C(C#N)C(c2ccc(Cl)cc2Cl)CC(=O)N1 (centres undefined) | inconclusive: 31.6 µM [inhibitor, single point]
COc1ccc(-c2cc(-c3n[nH]c(=S)n3-c3cc(OC)ccc3OC)[nH]n2)cc1 | inconclusive: 5.62 µM [inhibitor, partial curve, poor fit]
CCCCCn1c(SCCN2CCOCC2)nc2c1c(=O)[nH]c(=O)n2C | inconclusive: 39.8 µM [inhibitor, single point]
CCOC(=O)c1[nH]c(=S)n(Cc2ccccc2)c1C(=O)OCC | inconclusive: 2.51 µM [inhibitor, full curve, poor fit]
COc1cc(N=c2ssnc2Cl)c(OC)cc1Cl | active: 11.2 µM
CCOc1ccc(NCCC(O)c2ccc(F)cc2)cc1 (centres undefined) | inactive
CCOc1cc2c3c(c1)C(C)CC(C)(C)N3C(=O)C2=O (centres undefined) | inconclusive: 39.8 µM [inhibitor, single point]
Cc1cc(C)nc(SCc2n[nH]c(=S)n2C)n1 | inconclusive: 17.8 µM [inhibitor, partial curve]
Cc1nn(-c2ccccc2)c(-n2cccc2)c1C(=O)NCCCN1CCN(c2ccccc2F)CC1 | inactive
CC(Sc1sc(=S)sc1SC(C)C(=O)O)C(=O)O (centres undefined) | inconclusive: 44.7 µM [inhibitor, single point]
Cn1c(N)c(C(=O)COC(=O)C2(c3ccc(Cl)cc3)CCCC2)c(=O)n(C)c1=O | inconclusive: 31.6 µM [inhibitor, single point]
CCc1ccc(OCc2n[nH]c(=S)n2Cc2ccccc2)cc1 | inconclusive: 31.6 µM [inhibitor, partial curve]
O=C(N=c1nc2ccccn2s1)c1ccccc1 | inconclusive: 31.6 µM [inhibitor, partial curve, poor fit]
O=c1c2ccccc2[nH]c(=S)n1CCN1CCN(Cc2ccccc2)CC1 | inconclusive: 35.5 µM [inhibitor, single point]
CCN1C(=O)c2ccc(C(=O)NCc3ccccc3)cc2C1=O | inactive
CC(C)(C)c1cc(C(c2cccnc2)N2CCN(CCO)CC2)cc(C(C)(C)C)c1O (centres undefined) | inconclusive: 10 µM [inhibitor, partial curve]
Cc1ccc(-n2c([C@@H]3C[C@H]3c3ccccc3)n[nH]c2=S)cc1 | inconclusive: 15.8 µM [inhibitor, partial curve, poor fit]
CCOC(=O)c1[nH]c2ccc(Cl)cc2c1NC(=O)c1nonc1C | inactive
COc1ccc(/C=C2\C(=O)NC(=O)N(Cc3ccccc3)C2=O)c(OC)c1OC | inconclusive: 31.6 µM [inhibitor, single point]
O=C1CCCC(O)=C1C=Nc1cccc(C(F)(F)F)c1 | inactive

Compound | Potency
C=CCn1c(-c2cccc(OC)c2)n[nH]c1=S | inconclusive: 11.2 µM [inhibitor, partial curve]
COc1ccc(CCNC(=O)c2ccc3nc(-c4ccco4)c(-c4ccco4)nc3c2)cc1OC | inconclusive: 28.2 µM [inhibitor, partial curve]
COc1cccc(-c2n[nH]c(=S)n2Cc2ccco2)c1OC | inconclusive: 3.98 µM [inhibitor, full curve, poor fit]
CC(=O)Nc1ccc(S(=O)(=O)NNC(=O)c2cccc(Cl)c2)cc1 | inconclusive: 35.5 µM [inhibitor, single point]
CNC(=O)c1nc(C)n(-c2ccc(Cl)cc2Cl)n1 | inconclusive: 50.1 µM [inhibitor, single point]
Nc1ncnc(Nc2ccc(F)cc2)n1 | inactive
O=C(Cn1sc2ccccc2c1=O)Nc1ccc(F)cc1 | inconclusive: 5.01 µM [inhibitor, full curve, poor fit]
CCN(CC)CCNC(=O)c1cc2c(-c3ccc(Cl)cc3)nn(C)c2s1 | inconclusive: 25.1 µM [inhibitor, partial curve]
CCCCn1c(-c2csc(C(C)C)c2)n[nH]c1=S | inconclusive: 22.4 µM [inhibitor, partial curve]
C=CCn1c(C(C)NC(=O)c2cccc(C)c2)n[nH]c1=S (centres undefined) | inconclusive: 35.5 µM [inhibitor, partial curve, poor fit]
CCC(Sc1ccc2nnc(-c3ccc(F)cc3)n2n1)C(=O)O (centres undefined) | inconclusive: 35.5 µM [inhibitor, single point]
Cc1ccc2nc(N3CCOCC3)c(C=O)cc2c1 | inactive
N/C(=N\OC(=O)c1ccc([N+](=O)[O-])cc1Cl)c1ccccn1 | inconclusive: 35.5 µM [inhibitor, partial curve]
NNC(=O)c1cc(O)c(O)c(O)c1 | inconclusive: 11.2 µM [inhibitor, partial curve]
COc1ccc(C(=O)O/N=C(\N)c2ccccc2)cc1 | inconclusive: 17.8 µM [inhibitor, partial curve, poor fit]
CS(=O)(=O)N1CCc2cc(-c3csc(NC(=O)Cc4ccccc4)n3)ccc21 | inactive
CC/C=C(/NC(C)=O)c1ccccc1 | inconclusive: 50.1 µM [inhibitor, single point]
Cc1ccc(C(=O)O/N=C(\N)c2ccccc2)c(Cl)c1 | inconclusive: 50.1 µM [inhibitor, single point]
Cc1ccc(NCc2n[nH]c(=S)n2-c2ccccc2)cc1Cl | inconclusive: 11.2 µM [inhibitor, partial curve]
Cc1ccc(/C=C2\C(=O)NC(=S)N(c3ccc(F)cc3)C2=O)s1 | inconclusive: 28.2 µM [inhibitor, partial curve, poor fit]
CCC(C)NC(=O)Cn1c(=O)n(CCCC(=O)NCc2ccccc2Cl)c(=O)c2ccccc21 (centres undefined) | inconclusive: 50.1 µM [inhibitor, single point]
CC1CCN(c2ccc(NC(=O)c3cccnc3)cc2)CC1 | inactive
O=c1cccc2c1c1cc[nH]c3ccc(=O)n2c31 | inactive

Compound | Potency
COc1cc(C(=O)ON=C2C=C(C)C(=O)C(C)=C2)cc(OC)c1OC | inactive
C=CCn1c(-c2cc(OC)cc(OC)c2)n[nH]c1=S | inconclusive: 50.1 µM [inhibitor, single point]
O=C(Nc1cccc(Cl)c1)c1cc(N=Nc2ccc([N+](=O)[O-])cc2Cl)ccc1O | inconclusive: 35.5 µM [inhibitor, single point]
O=C1NC(=O)N(c2ccc(Cl)cc2)C(=O)/C1=C/c1coc2ccc(O)cc2c1=O | inconclusive: 15.8 µM [inhibitor, partial curve, poor fit]
O=C(Nc1ccc2c(c1)OCO2)N1CCN(Cc2ccco2)CC1 | inactive
CCn1c(-c2ccccc2SC)n[nH]c1=S | inconclusive: 8.91 µM [inhibitor, partial curve]
COc1ccc2nc(Nc3sc4c(c3C(N)=O)CCCC4)sc2c1 | active: 2.82 µM
Cc1cc(=O)[nH]c(N/N=C/c2cccs2)n1 | inactive
Cc1ccc(C2=CSC3=NCCN23)c(C)c1 | inconclusive: 22.4 µM [inhibitor, partial curve]
CN1C(=O)/C(=C\c2cc(N=Nc3ccccc3)ccc2O)SC1=S | inconclusive: 35.5 µM [inhibitor, partial curve, poor fit]
S=c1[nH]nc(Cc2cccs2)n1-c1ccccc1 | active: 8.91 µM
CSCC[C@H](NC(=O)CCNC(C)=O)c1nc2ccccc2[nH]1 | inconclusive: 2 µM [inhibitor, full curve]
Cc1ccc(S(=O)(=O)N(C(=O)c2ccco2)c2cc3sc(=O)oc3c3ccccc23)cc1 | inconclusive: 25.1 µM [inhibitor, partial curve, poor fit]
S=c1[nH]nc(-c2cc(-c3ccsc3)n[nH]2)n1-c1cccc2ccccc12 | inconclusive: 7.94 µM [inhibitor, partial curve]
CC(C)c1ccc(OCC(=O)NCC(c2ccc(Cl)cc2)N2CCOCC2)cc1 (centres undefined) | inactive
CCN(CC)C(=O)c1ccc(S(=O)(=O)Cc2ccc(C)cc2)c([N+](=O)[O-])c1 | inactive
CCNC(=S)NCCC1=c2ccccc2=N/C1=C\c1c(O)n(C)c(=O)n(C)c1=O | inconclusive: 28.2 µM [inhibitor, partial curve, poor fit]
C=CCn1c(CCc2ccc(OC(C)C)cc2)n[nH]c1=S | inconclusive: 15.8 µM [inhibitor, partial curve, poor fit]
CCOC(=O)CSc1nnc(Cc2ccc(OC)cc2)n1-c1ccccc1 | inconclusive: 35.5 µM [inhibitor, partial curve]
COCCCn1c(O)c(/C=C2\N=C(C#N)C(=Nc3ccc(C)cc3)O2)sc1=S | inconclusive: 31.6 µM [inhibitor, partial curve, poor fit]
Cc1cccc(C)c1OCc1n[nH]c(=S)o1 | inconclusive: 15.8 µM [inhibitor, partial curve, poor fit]
C=Cc1ccc(C(=O)N2CCCC(Nc3ccc4c(c3)OCCO4)C2)cc1 (centres undefined) | inconclusive: 25.1 µM [inhibitor, partial curve, poor fit]
Cc1ccc(-c2n[nH]c(=S)n2/N=C\c2ccco2)cc1 | inconclusive: 2.51 µM [inhibitor, full curve, poor fit]
